In article PMC7819943, “Rice protein-binding microarrays: a tool to detect cis-acting elements near promoter regions in rice”:
This is one part of the list.

Target: T1, OsWOX13 (Oryza sativa, UniProt Q5QMM3 1-267)
T1 sequence: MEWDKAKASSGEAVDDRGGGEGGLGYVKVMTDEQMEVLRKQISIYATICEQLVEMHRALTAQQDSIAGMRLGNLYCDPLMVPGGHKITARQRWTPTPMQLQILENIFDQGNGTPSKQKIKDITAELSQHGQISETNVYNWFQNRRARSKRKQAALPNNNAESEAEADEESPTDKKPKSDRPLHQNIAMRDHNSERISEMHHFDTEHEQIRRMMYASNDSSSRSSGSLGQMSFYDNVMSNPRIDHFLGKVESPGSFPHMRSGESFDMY
Assay: protein-binding microarray (RPBM); PBS, 2% BSA, 51.3 ng/ul salmon testes DNA, 50 uM zinc acetate, 200 nM TF, 25 C, 1 h; high values mean tight binding
Details: protein: recombinant; tags: N-terminal polyhistidine and DsRed monomer fusion (pET32a); label: CyDye5-dUTP incorporated in the synthesized complementary strand; 3' TTTTT single-stranded linker to array surface; dsDNA, one strand shown
Procedure, shortened: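 Polyhistidine-tagged DsRed fusions of transcription factors, joined at the N-terminus, were expressed in E. coli BL21-CodonPlus and isolated on Ni–NTA. They were incubated at 200 nM for 1 h at 25 °C on a custom Agilent array, double-stranded and BSA-blocked, in PBS with 2% BSA, salmon testes DNA and 50 µM zinc acetate. The binding signal is per-feature fluorescence intensity (arbitrary units) read on an Axon 4000B scanner after washing.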

Compared with “ACGTGATGATCATTAACGCAGGAAGGGGCTACTATAATCACGGAGTCACCTAGTGCAG”, “TGGAAGAAATTGATGTAATGCTCTGGCCTTTTCATGGATACGGAGTCACCTAGTGCAG” is higher in binding signal: 6920 fluorescence intensity (a.u.) for the first, 8100 fluorescence intensity (a.u.) for the second.

Compared with “CTTGATTGACCTTCACCGGCGCCGGCGCCGGCGCCGCCGTCGGAGTCACCTAGTGCAG”, “AGCTATTAGTGTATGATTAATTAAGTTTTAATTATTTCAACGGAGTCACCTAGTGCAG” is higher in binding signal: 11900 fluorescence intensity (a.u.) for the first, 19000 fluorescence intensity (a.u.) for the second.

Compared with “TTAATTAGAATTAAACCTCGGTACATACAATATGTACTTACGGAGTCACCTAGTGCAG”, “GTTGACAATATTTGATAGGTTGTCCAATGGTATCGATTATCGGAGTCACCTAGTGCAG” is higher in binding signal: 6350 fluorescence intensity (a.u.) for the first, 10200 fluorescence intensity (a.u.) for the second.

“ACTTCTCCCAATCAAACCCGCCGCCGCCGCCGCCACTCCTCGGAGTCACCTAGTGCAG” and “TAACAATCACAACTTCTTTCATAATCTTCAGCTTTCCAAACGGAGTCACCTAGTGCAG” are the same in binding signal: 4260 fluorescence intensity (a.u.) for the first, 4260 fluorescence intensity (a.u.) for the second.

First: AAGATTATAAATGGTTGTGATTGATTAAGACAAGAAAATACGGAGTCACCTAGTGCAG
Second: GATAAGATTGGGCCGTCCTTCCCGAAGTCAAATCAAGGCCCGGAGTCACCTAGTGCAG
The binding signal of the first is higher: 22100 fluorescence intensity (a.u.) for the first, 3330 fluorescence intensity (a.u.) for the second.

Compared with “TCACATTTATTTTAATTATCAATTTTCTTTTCCAAAATGGCGGAGTCACCTAGTGCAG”, “TCTTGATGAATTTCAACCAAAAGCACGTCACTATATGCAACGGAGTCACCTAGTGCAG” is lower in binding signal: 21200 fluorescence intensity (a.u.) for the first, 4130 fluorescence intensity (a.u.) for the second.

First: ATCCTTATTTGATTCCTGATCAAATTAATACTGCTGCTTTCGGAGTCACCTAGTGCAG
Second: CTAGTTAATTAAATAATCACATATATGATCTATGAATATTCGGAGTCACCTAGTGCAG
The binding signal of the first is lower: 3200 fluorescence intensity (a.u.) for the first, 47500 fluorescence intensity (a.u.) for the second.

Compared with “TCCATTTGATTACTCGTAACCATCTCCATTCTTTCATCCTCGGAGTCACCTAGTGCAG”, “TCATTTCATATAATTATTCTTTTAATAGCAAAACATGTAGCGGAGTCACCTAGTGCAG” is lower in binding signal: 17800 fluorescence intensity (a.u.) for the first, 5910 fluorescence intensity (a.u.) for the second.

Compared with “ATTCAAATTTAATTTATTGAAACAAAGTCATATAGCAAAACGGAGTCACCTAGTGCAG”, “GTTTTGGTTTGGTAAAATAGATATAGTGATATACTTTATTCGGAGTCACCTAGTGCAG” is lower in binding signal: 23100 fluorescence intensity (a.u.) for the first, 5750 fluorescence intensity (a.u.) for the second.

First: GCAAATATTTGTCAGATAAATTGCAATTTGACACGTACCTCGGAGTCACCTAGTGCAG
Second: TATGATTAACAGCTCCTCCCTCTCCAGTCCTTGTTCGCCACGGAGTCACCTAGTGCAG
The binding signal of the first is lower: 9580 fluorescence intensity (a.u.) for the first, 23100 fluorescence intensity (a.u.) for the second.

Going from “GAAGAGGTAATGTGAAGACCAATCATGCCACCTGATTGTTCGGAGTCACCTAGTGCAG” to “ATGGGAGGTGTCAGTCTATTGATTTATATATATTCAAACGCGGAGTCACCTAGTGCAG”, the binding signal falls from 7590 fluorescence intensity (a.u.) to 3870 fluorescence intensity (a.u.).

First: ACCTTTAATTTGCAGAAAGAAAGAAAGAAAGAAAGAAAGGCGGAGTCACCTAGTGCAG
Second: CGAATCTTCTGAGCCTAATTACACCATGATTTGACAATATCGGAGTCACCTAGTGCAG
The binding signal of the first is higher: 10500 fluorescence intensity (a.u.) for the first, 4570 fluorescence intensity (a.u.) for the second.

First: ATATCTATATCTAATTTACTATATTAGAATGTGTCGTATCCGGAGTCACCTAGTGCAG
Second: AGTGTGGAGATTAAATTTATTAATTAGCAGCTGGCTGGTACGGAGTCACCTAGTGCAG
The binding signal of the first is lower: 3480 fluorescence intensity (a.u.) for the first, 25600 fluorescence intensity (a.u.) for the second.

Compared with “ATGTTTAATAGACTAAATTAGCGTCCAAACATCCGATGTGCGGAGTCACCTAGTGCAG”, “GCCAATGAGCAAACTAATTAATTGTTTCCTTATAATTAAGCGGAGTCACCTAGTGCAG” is lower in binding signal: 34200 fluorescence intensity (a.u.) for the first, 14300 fluorescence intensity (a.u.) for the second.

Going from “AGATCTTAATTATTCTATATATTAATATTCAACCAAACAACGGAGTCACCTAGTGCAG” to “GGAGGAGAGAGAGATTGATAGGTAGACAGATATAGGTAGTCGGAGTCACCTAGTGCAG”, the binding signal rises from 6980 fluorescence intensity (a.u.) to 9280 fluorescence intensity (a.u.).

Compared with “CCTCTAAATCAAATTATTCAATCTCCATACAAAATTAGACCGGAGTCACCTAGTGCAG”, “ATGACTGGCCCTATCAATTACTAGTAACCACTGCTTTCAGCGGAGTCACCTAGTGCAG” is higher in binding signal: 16300 fluorescence intensity (a.u.) for the first, 28700 fluorescence intensity (a.u.) for the second.

Going from “CCTCAATCTTTGATGAGCTTCCTTCTCATCCTCTATTGTCCGGAGTCACCTAGTGCAG” to “TCCCAATTGCTCAGGTCCAATTACTGATAAGCCACCCAGCCGGAGTCACCTAGTGCAG”, the binding signal falls from 5890 fluorescence intensity (a.u.) to 4120 fluorescence intensity (a.u.).

First: ATTAACTAATTTTAGTCTAGTCCCTCCCATCCAATGATCCCGGAGTCACCTAGTGCAG
Second: TCCGGGATTATTTTATAATCAGTGCAGTTGAGAGAGTGAACGGAGTCACCTAGTGCAG
The binding signal of the first is higher: 11100 fluorescence intensity (a.u.) for the first, 5370 fluorescence intensity (a.u.) for the second.

Compared with “CTCATTAAATAGATGTTTATGTGAGAGTGGGAAGATGGTTCGGAGTCACCTAGTGCAG”, “ACCTTAATTAGTTCTTTTCTGCTCAGTTATGCTCATCATTCGGAGTCACCTAGTGCAG” is higher in binding signal: 4410 fluorescence intensity (a.u.) for the first, 38300 fluorescence intensity (a.u.) for the second.

Compared with “CATGTGATTGAAAATACTCTAGATAATAATTGCTAGTGGGCGGAGTCACCTAGTGCAG”, “GTCTTCTATAATTACTTTTCCCCGTTCTGGAATAATTGGCCGGAGTCACCTAGTGCAG” is lower in binding signal: 49200 fluorescence intensity (a.u.) for the first, 4740 fluorescence intensity (a.u.) for the second.

First: TTAATCAATTATCTAAGCAATCACCAACGCACCGGGGCAGCGGAGTCACCTAGTGCAG
Second: ATTAATACTTGACTAATCATACGCTAATGATTTATCTCGTCGGAGTCACCTAGTGCAG
The binding signal of the first is higher: 40300 fluorescence intensity (a.u.) for the first, 12900 fluorescence intensity (a.u.) for the second.
